# Measurements from PubChem BioAssay (NCATS).
# The inconclusive results got no clear call from the source; some entries with a clear call stand among them for comparison. Potencies of inconclusive entries are left out as doubtful fits. The source made the active and inactive calls. Calls follow the shape of the dose curve; as a rule, active = well fitted curve in the direction sought with a large enough effect; inconclusive = small, poorly fitted or top-dose-only effect, or another doubt; inactive = no such curve, though single readings can be large; an effect the other way counts as inactive or inconclusive.
# Columns and labels:
# [1] = Primary redox qHTS assay for identification of artifact compounds. (AID 1845223); conditions: Amplex Red/HRP redox cycling with DTT, fluorescence; series mostly up to 53.8 µM
# Method in brief: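 Redox-cycling detection via DTT (250 uM final) oxidation coupled to Amplex Red (25 uM)/HRP (250 mU/mL) in HBSS. 15 min preincubation plus 30 min after DTT, room temperature. Ex/Em 525/598 nm; 4-parameter Hill fit against DMSO and 10 uM DA3003.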
# [2] = Quantitative High-Throughput drug screen in 47 multiple myeloma cell lines against the NCATS MIPE library collection: AMO1_DSMZ cell viability assay (AID 1918927; also: nearly all actives have a fitted effect of over 30% in size); conditions: AMO1 myeloma cells viability, CellTiter-Glo ATP luminescence, 48 h; series mostly up to 45.8 µM
# Method in brief: (§1)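 Viability readout: CellTiter-Glo luminescence following 5 min room-temperature incubation with reagent. Prior exposure: 48 h, 37C, humidified 5% CO2, 500 cells per well.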
# [3] = Quantitative High-Throughput drug screen in 47 multiple myeloma cell lines against the NCATS MIPE library collection: ARP1_JJKsccF8 cell viability assay (AID 1918928; also: nearly all actives have a fitted effect of over 40% in size); conditions: ARP1 myeloma cells viability, CellTiter-Glo ATP, 48 h; viability: at 45.8 µM (top of the series)
# Method in brief: (§2)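 Cell viability inhibition in this qHTS is measured via ATP content (CellTiter-Glo) after 48 h drug exposure at 37 °C. Wells hold 500 cells; DMSO-treated wells define 100% and medium-only wells 0%.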
# [4] = Quantitative High-Throughput drug screen in 47 multiple myeloma cell lines against the NCATS MIPE library collection: Karpas417_ECACC cell viability assay (AID 1918961); conditions: Karpas417 myeloma viability, CellTiter-Glo ATP luminescence, 48 h; viability (% of DMSO): at 45.8 µM (top of the series)
# Method in brief: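 Inhibition of cell viability is measured here. Each line was plated at 500 cells per well, treated with MIPE 4.0 drugs, kept 48 hours at 37C, then assayed for ATP content by CellTiter-Glo luminescence.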
# [5] = Quantitative High-Throughput drug screen in 47 multiple myeloma cell lines against the NCATS MIPE library collection: FR4_PLB cell viability assay (AID 1918924; also: nearly all actives have a fitted effect of over 35% in size); conditions: FR4_PLB myeloma cells viability, CellTiter-Glo ATP, 48 h; series mostly up to 45.8 µM
# Method in brief: (§3)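 Approved and investigational drugs from MIPE 4.0 were added by pin tool to 500 cells per well. After 48 hours at 37C, ATP-based CellTiter-Glo luminescence indicated remaining viability.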
# [6] = Quantitative High-Throughput drug screen in 47 multiple myeloma cell lines against the NCATS MIPE library collection: EJM_DSMZ cell viability assay (AID 1918926; also: nearly all actives have a fitted effect of over 30% in size); conditions: EJM myeloma cell viability, CellTiter-Glo ATP, 48 h; series mostly up to 45.8 µM
# Method in brief: as §1
# [7] = Quantitative High-Throughput drug screen in 47 multiple myeloma cell lines against the NCATS MIPE library collection: Karpas620_DSMZ cell viability assay (AID 1918959); conditions: Karpas620 myeloma viability, CellTiter-Glo ATP luminescence, 48 h; viability (% of DMSO): at 45.8 µM (top of the series); also: nearly all actives have a fitted effect of over 30% in size
# Method in brief: as §3
# [8] = Quantitative High-Throughput drug screen in 47 multiple myeloma cell lines against the NCATS MIPE library collection: KMM1_JCRB cell viability assay (AID 1918960); conditions: KMM1 myeloma viability, CellTiter-Glo ATP luminescence, 48 h; viability (% of DMSO): at 45.8 µM (top of the series); also: nearly all actives have a fitted effect of over 30% in size
# Method in brief: as §2
# [9] = Quantitative High-Throughput drug screen in 47 multiple myeloma cell lines against the NCATS MIPE library collection: ARD_JJKsccE7 cell viability assay (AID 1918929); conditions: ARD myeloma cell line viability, CellTiter-Glo, 48 h; viability: at 45.8 µM (top of the series)
# Method in brief: as §1
# [10] = Quantitative High-Throughput drug screen in 47 multiple myeloma cell lines against the NCATS MIPE library collection: Delta47_JCRB cell viability assay (AID 1918925; also: nearly all actives have a fitted effect of over 45% in size); conditions: Delta47 myeloma viability, CellTiter-Glo ATP, 48 h; viability (% of DMSO): at 45.8 µM (top of the series)
# Method in brief: as §1
# Potency is read from the fitted curve at half-maximal effect; tags tell the direction and shape of the fitted curve.
SMILES,Potency [1],Potency [2],Potency [3],Potency [4],Potency [5],Potency [6],Potency [7],Potency [8],Potency [9],Potency [10]
Nc1nc(F)nc2c1ncn2[C@@H]1O[C@H](CO)[C@@H](O)[C@@H]1O,inactive,active: 0.372 µM,active: 0.264 µM,active: 0.0469 µM,–,–,–,–,–,–
Cn1cnc(-c2cc3nccc(Oc4ccc(NC(=S)NC(=O)Cc5ccccc5)cc4F)c3s2)c1,inactive,"inconclusive [cytotoxic, partial curve]","inconclusive [cytotoxic, single point]",–,"inconclusive [cytotoxic, partial curve]","inconclusive [cytotoxic, partial curve]","inconclusive [cytotoxic, partial curve]","inconclusive [cytotoxic, partial curve]",–,–
CCOc1cc(C(=O)Nc2ccc(Cl)c(-c3nc4ccccc4[nH]3)c2)cc(OCC)c1OCC,inactive,"inconclusive [cytotoxic, full curve]","inconclusive [cytotoxic, single point]","inconclusive [cytotoxic, partial curve, poor fit]","inconclusive [cytotoxic, partial curve]",–,–,"inconclusive [cytotoxic, full curve]","inconclusive [cytotoxic, full curve]",–
Cc1ccc2c(c1)c1c(n2CCc2ccc(C)nc2)CCN(C)C1,"inconclusive [activator, single point]",–,"inconclusive [cytotoxic, single point]",inactive,"inconclusive [cytotoxic, single point]",inactive,–,–,inactive,inactive
O=C(O)CCc1ccc(NCc2cccc(Oc3ccccc3)c2)cc1,"inconclusive [activator, partial curve]",–,inactive,inactive,–,–,–,–,inactive,inactive
CC1(C)O[C@H]2CC(=O)OC[C@]23[C@H]2CC[C@@]4(C)[C@H](c5ccoc5)OC(=O)[C@H]5O[C@]54[C@]2(C)C(=O)C[C@@H]13,"inconclusive [activator, partial curve, poor fit]",–,–,"inconclusive [cytotoxic, full curve, poor fit]",–,–,–,–,inactive,"inconclusive [rising, full curve, poor fit]"
c1ccc(-c2oc3ncnc(NC[C@@H]4CCCO4)c3c2-c2ccccc2)cc1,inactive,–,"inconclusive [cytotoxic, full curve]",–,"inconclusive [cytotoxic, partial curve]","inconclusive [cytotoxic, single point]",–,active: 3.32 µM,"inconclusive [cytotoxic, partial curve, poor fit]","inconclusive [cytotoxic, partial curve, poor fit]"
COc1ccc(Cc2nccc3cc(OC)c(OC)cc23)cc1OC,–,"inconclusive [cytotoxic, partial curve, poor fit]","inconclusive [cytotoxic, partial curve]",–,inactive,"inconclusive [cytotoxic, partial curve, poor fit]","inconclusive [cytotoxic, full curve, poor fit]","inconclusive [cytotoxic, full curve, poor fit]",–,"inconclusive [cytotoxic, full curve, poor fit]"
Cc1ccccc1C(C(=O)NC1CCCCC1)N(C(=O)CNc1ccc(C#N)cc1)c1cccc(F)c1 (stereo not given),–,"inconclusive [cytotoxic, full curve, poor fit]","inconclusive [rising, full curve, poor fit]",–,"inconclusive [cytotoxic, partial curve, poor fit]","inconclusive [cytotoxic, partial curve, poor fit]",inactive,–,–,"inconclusive [cytotoxic, full curve, poor fit]"
CN(C(=O)c1ccc(F)cc1C(F)(F)F)C1CCN(c2nnc(-c3ccnn3C)c3ccccc23)CC1,–,"inconclusive [cytotoxic, single point]","inconclusive [rising, full curve]","inconclusive [cytotoxic, partial curve, poor fit]","inconclusive [cytotoxic, single point]","inconclusive [cytotoxic, partial curve, poor fit]","inconclusive [cytotoxic, single point]","inconclusive [cytotoxic, single point]",–,"inconclusive [cytotoxic, single point]"
Cc1cccc(N(C)C(=S)Oc2ccc3ccccc3c2)c1,–,"inconclusive [cytotoxic, single point]",inactive,"inconclusive [cytotoxic, full curve, poor fit]",inactive,inactive,–,"inconclusive [cytotoxic, partial curve]",active: 20.9 µM,inactive
C[C@@H]1[C@H](C)CC[C@]2(C(=O)O)CC[C@]3(C)C(=CC[C@@H]4[C@@]5(C)CC[C@H](O)C(C)(C)[C@H]5CC[C@]43C)[C@@H]12,–,inactive,–,"inconclusive [cytotoxic, full curve, poor fit]",active: 42.9 µM,"inconclusive [cytotoxic, full curve, poor fit]",–,inactive,–,"inconclusive [rising, full curve, poor fit]"
COc1cc2nc(N(C)CCCNC(=O)C3CCCO3)nc(N)c2cc1OC (stereo not given),–,"inconclusive [rising, full curve]","inconclusive [rising, full curve]","inconclusive [cytotoxic, full curve, poor fit]","inconclusive [rising, full curve, poor fit]",inactive,–,–,"inconclusive [rising, full curve, poor fit]","inconclusive [rising, full curve]"
COc1ccc(CCN(C)CCCOc2ccc(S(=O)(=O)c3[nH]c4ccccc4c3C(C)C)cc2)cc1OC,–,inactive,inactive,"inconclusive [cytotoxic, full curve, poor fit]","inconclusive [cytotoxic, partial curve, poor fit]","inconclusive [cytotoxic, partial curve, poor fit]",–,–,–,active: 20.9 µM
CN1CCN(c2ccc3nc(-c4c(N)c5c(F)cccc5[nH]c4=O)[nH]c3c2)CC1,–,active: 11.8 µM,–,active: 8.33 µM,"inconclusive [cytotoxic, single point]",active: 18.7 µM,–,–,–,active: 2.35 µM
COc1ccc(C2(C#N)CCC(C(=O)O)CC2)cc1OC1CCCC1 (stereo not given),–,inactive,–,"inconclusive [cytotoxic, partial curve, poor fit]",inactive,inactive,–,–,–,"inconclusive [cytotoxic, partial curve, poor fit]"
CC=C1C2C=C(C)CC1(N)c1ccc(=O)[nH]c1C2 (stereo not given),–,inactive,"inconclusive [cytotoxic, single point]","inconclusive [rising, single point]",inactive,inactive,–,–,–,inactive
COc1cc2c(cc1OC)CC(=O)N(CCCN(C)C[C@H]1Cc3cc(OC)c(OC)cc31)CC2,–,"inconclusive [cytotoxic, partial curve]",–,"inconclusive [cytotoxic, partial curve, poor fit]",inactive,"inconclusive [cytotoxic, partial curve, poor fit]",–,"inconclusive [cytotoxic, partial curve]",–,"inconclusive [cytotoxic, partial curve, poor fit]"
Cc1oc(=O)oc1CN1CCN(c2cc3c(cc2F)c(=O)c(C(=O)O)c2n3C(C)S2)CC1 (stereo not given),–,inactive,–,"inconclusive [rising, partial curve]","inconclusive [cytotoxic, partial curve, poor fit]","inconclusive [cytotoxic, full curve, poor fit]",–,–,–,inactive
CCCS(=O)(=O)Nc1ccc(F)c(C(=O)c2c[nH]c3ncc(Cl)cc23)c1F,–,active: 20.9 µM,"inconclusive [cytotoxic, single point]",–,"inconclusive [cytotoxic, full curve, poor fit]",inactive,–,active: 16.6 µM,–,"inconclusive [cytotoxic, partial curve, poor fit]"
C=CC(=O)Nc1cccc(Oc2nc(Nc3ccc(N4CCN(C)CC4)cc3OC)ncc2Cl)c1,–,"inconclusive [cytotoxic, partial curve, poor fit]","inconclusive [cytotoxic, partial curve]",inactive,"inconclusive [cytotoxic, full curve, poor fit]","inconclusive [cytotoxic, partial curve, poor fit]",–,"inconclusive [cytotoxic, single point]","inconclusive [cytotoxic, partial curve, poor fit]",active: 0.0296 µM
